Test results: PubChem BioAssay AID1345083 (National Center for Advancing Translational Sciences (NCATS), 2018)
The whole screen tested about 94,000 compounds, of which about 6,200 (6.6%) were called active. Inconclusive means that the source gave no clear call. Such entries were picked first, then a sample of the others. Calls follow the shape of the dose curve; as a rule, active = well fitted inhibition curve with a large enough effect; inconclusive = small, poorly fitted or top-dose-only effect; inactive = flat fitted curve, though single readings scatter. Potencies beside an inconclusive call are fits to weak or partial responses and may not hold up.
Potency is read from the fitted curve at half-maximal effect; tags tell the direction and shape of the fitted curve.

Assay: Cytotoxic Profiling in HEK 293 Cell Line of Diverse Libraries Using Quantitative High-Throughput Screening; also: nearly all actives have a fitted effect of over 60% in size
Conditions: HEK 293 viability, ATP luminescence (CellTiter-Glo), 48-72 h; series mostly up to 115 µM
In short: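 HEK 293 cells seeded at 250 cells/well were exposed to compound for 48 or 72 hr at 37 degree Celsius. Viability taken as ATP content by CellTiter-Glo luminescence.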
In the case of `CC(C)(C)CC(=O)NC[C@H]1OC[C@@H](NCc2ncc[nH]2)[C@@H]1O`, the Potency is reported as “inactive”. For `O=C(NCc1cccnc1)c1cn2cc(-c3ccccc3)sc2n1`, the Potency was active: 50.1 µM. For `O=C(NCc1nnc2ccc(-c3ccc(F)cc3)nn12)c1cccc(C(F)(F)F)c1`, the Potency was inconclusive: 89.1 µM [inhibitor, single point]. In the case of `CCNC(=O)N(C1CC1)C1CCOC2(CCN(C(=O)c3nccc4ccccc34)CC2)C1` (stereo not drawn), the Potency is reported as “inactive”. For `O=C(CCn1cnc2ccccc21)N1CCn2nc(Cc3ccccc3)cc2C1`, the Potency was inconclusive: 25.1 µM [inhibitor, full curve]. For `Cc1ccsc1C(=O)N1CCC(n2cc(-c3nc(C(C)C)no3)nn2)CC1`, the Potency was inconclusive: 39.8 µM [inhibitor, partial curve, poor fit]. For `COc1ccc(C(=O)NC2CCCN(CCc3ccccc3)C2)c(OC)n1` (stereo not drawn), the Potency was “inactive”. For `COCCNc1ncc(-c2cccc(OC)c2)c2c1OCC2`, the Potency was inconclusive: 63.1 µM [inhibitor, full curve, poor fit]. For `O=[S+]1([O-])NC2(CCN(CC3CC3)C2)CNc2ccccc21` (stereo not drawn), the Potency was inconclusive: 126 µM [inhibitor, single point]. In the case of `O=C(c1ccc2c(c1)OCO2)N1CCC(Cc2nc(-c3ccc(F)cc3)no2)CC1`, the Potency is reported as inconclusive: 35.5 µM [inhibitor, partial curve, poor fit]. With `Cc1nc(-c2c3n(c(=O)n(CC(=O)Nc4ccc(Cl)cc4)c2=O)CCCC3)no1` the Potency was “inactive”. For `COc1ccc(-c2nc(C3CC(=O)N(c4ccc(F)cc4)C3)no2)cc1` (stereo not drawn), the Potency was inconclusive: 79.4 µM [inhibitor, single point]. In the case of `COc1ncc(-c2ccc3ncn(-c4ccc(F)cc4F)c(=O)c3n2)cn1`, the Potency is reported as active: 89.1 µM. For `COc1ccc(Cn2c(=O)c(C(=O)N3CCN([S+](=O)([O-])c4ccccc4)CC3)nc3cccnc32)cc1`, the Potency was “inactive”. With `CCCCOc1ccc(C(=O)N2CCC[C@H]2c2nc(-c3ccc(F)cc3)no2)cc1` the Potency was inconclusive: 56.2 µM [inhibitor, partial curve, poor fit]. With `CCOC(=O)C1(Cc2ccc(Cl)cc2)CCN(C(=O)c2cc(C)oc2C)CC1` the Potency was active: 20 µM. In the case of `CCCc1noc(-c2cccn3c(CNC(=O)c4ccc(N(C)C)cc4)nnc23)n1`, the Potency is reported as inconclusive: 89.1 µM [inhibitor, single point]. In the case of `CCn1cc(S(=O)(=O)N2CCCCC2c2nc(-c3ccncc3)n[nH]2)cn1` (stereo not drawn), the Potency is reported as “inactive”. With `COc1ccc(CNC(=O)C2CCCN(c3nccc(Nc4ccccc4F)n3)C2)cc1` (stereo not drawn) the Potency was active: 28.2 µM. With `CN(C)c1ccc(CN2CCCC3(C2)C(=NC2CCCCC2)NC(=O)N3c2cc(F)cc(F)c2)cc1` (stereo not drawn) the Potency was active: 79.4 µM. In the case of `CN(C)c1cc(N2CCCC(NC(=O)c3cccn3C)C2)ncn1` (stereo not drawn), the Potency is reported as “inactive”. With `CCCc1noc(-c2cccn3c(CNC(=O)CCc4ccccc4)nnc23)n1` the Potency was “inactive”. In the case of `O=C(NCC1CC1)c1cccc(OC2CN(Cc3cc4ccccc4nc3Cl)C2)c1`, the Potency is reported as inconclusive: 10 µM [inhibitor, full curve, poor fit]. In the case of `CCCc1nc(C(=O)NCc2ccc(-n3ccnc3C)cc2)cs1`, the Potency is reported as active: 20 µM. With `O=C(N[C@H]1CCN2C(=O)c3cc(-c4ccc(Cl)cc4)ccc3NC(=O)[C@H]12)C1CCCC1` the Potency was inconclusive: 89.1 µM [inhibitor, single point]. In the case of `Cc1ccc2c(c1)nc1n2[C@@H](CNC(=O)c2ccc(C#N)cc2)COC1`, the Potency is reported as inconclusive: 112 µM [inhibitor, partial curve, poor fit]. For `COc1cccc(NC(=O)C2(Cc3ccccc3)CCCCC(=O)N2)c1` (stereo not drawn), the Potency was inconclusive: 89.1 µM [inhibitor, single point]. With `COc1ccc(C(=O)Nc2ccc(-c3noc([C@@H]4CCCN4Cc4ccc(F)c(F)c4)n3)cn2)cc1` the Potency was inconclusive: 15.8 µM [inhibitor, full curve]. For `Cc1cccc(CC(=O)N2CCC3(CCC(=O)N(CC4CC4)CC3)CC2)c1`, the Potency was “inactive”. In the case of `O=C1CN(Cc2ccc(-c3cnc4c(OCc5ccccc5)nccn34)cc2)CCN1`, the Potency is reported as inconclusive: 44.7 µM [inhibitor, partial curve, poor fit]. In the case of `Fc1ccccc1-c1n[nH]c2c1CN(Cc1cccc3c1OCO3)CC2`, the Potency is reported as active: 44.7 µM. For `CCCc1noc(-c2cn(C3CCN(C(=O)c4ccc(OC)cc4)CC3)nn2)n1`, the Potency was inconclusive: 39.8 µM [inhibitor, partial curve, poor fit]. With `CC(=O)NC[C@@H]1C=C(C)[C@H](Cc2nc3ccc(C)cc3[nH]2)C[C@H]1C(C)C` the Potency was inconclusive: 56.2 µM [inhibitor, partial curve, poor fit]. For `CC1=C[C@@H](CC#N)[C@H](C(C)C)C[C@H]1CC(=O)N1CCC(C)CC1`, the Potency was active: 70.8 µM. With `O=C(Cc1ccccc1F)N1CC2CC(C1)[C@H]1CCCC(=O)N1C2` (stereo partly drawn) the Potency was “inactive”. With `CN1CCc2nc(N3CCN(CC4CCCCC4)CC3)sc2C1` the Potency was inconclusive: 25.1 µM [inhibitor, partial curve, poor fit]. With `COc1ccc(-c2nc(C)nc3c2CN(C(=O)Cc2cccc(Cl)c2)CC3)cc1` the Potency was “inactive”. With `Cc1cccc(C(=O)N2CC(Oc3ccc(-c4nc(-c5ccccc5)no4)cc3)C2)c1` the Potency was inconclusive: 20 µM [inhibitor, full curve, poor fit]. With `Cn1ncc2c(C(=O)NCc3cccs3)cc(-c3cccnc3)nc21` the Potency was inconclusive: 56.2 µM [inhibitor, partial curve, poor fit]. With `COc1ccc(C(=O)N2CCCn3nc(C)c(-c4ccccc4C(C)C)c32)cc1` the Potency was inconclusive: 100 µM [inhibitor, partial curve, poor fit]. With `CC(C)CCN1CCOc2cc(C(=O)Nc3ccncn3)ccc2C1` the Potency was inconclusive: 89.1 µM [inhibitor, partial curve]. For `COc1ccc(-c2noc(-c3nc(-c4ccccc4OC)no3)n2)cc1OC`, the Potency was “inactive”. For `Cc1ccc(-c2ccccc2CN2CCC(C(=O)N3CCC(Cc4ccccc4)CC3)CC2)cc1Cl`, the Potency was inconclusive: 79.4 µM [inhibitor, partial curve, poor fit].
